According to patent publication US10299477B2 (priority 2015, dated 2019):

system: Colletotrichum orbiculare; conditions: 250 ppm, sprayed 2.5 ml/pot before inoculation; evaluated 6-10 days after inoculation

SMILES	Test H (control value class, anthracnose on cucumber)
CCn1c(-c2c(F)cc(OC)cc2F)c(-c2cc(F)ccc2Cl)ccc1=O [Compound 739]	H (H shows more than 50% of control values)
CCOc1cc(F)c(-c2c(-c3ccccc3F)ccc(=O)n2C)c(F)c1 [Compound 591]	H (H shows more than 50% of control values)
CCn1c(-c2c(F)cccc2F)c(-c2ccc(F)cc2F)cc(Cl)c1=O [Compound 630]	H (H shows more than 50% of control values)
CN1C(=O)CCC(c2ccc(F)cc2Cl)=C1c1c(F)cc(F)cc1F [Compound 574]	H (H shows more than 50% of control values)
CCn1c(-c2c(F)cc(OC)cc2F)c(-c2cc(F)c(F)cc2F)ccc1=O [Compound 638]	H (H shows more than 50% of control values)
COc1cccc(-c2ccc(=O)n(C)c2-c2c(F)cc(F)cc2F)c1Cl [Compound 661]	H (H shows more than 50% of control values)
CCn1c(-c2c(F)cc(F)cc2F)c(-c2ccc(OC)cc2Cl)cc(Cl)c1=O [Compound 746]	H (H shows more than 50% of control values)
CCOc1cc(F)c(-c2c(-c3cccc(OC)c3Cl)ccc(=O)n2C)c(F)c1 [Compound 664]	H (H shows more than 50% of control values)
CCN1C(=O)CCC(c2ccccc2Br)=C1c1c(F)cc(F)cc1F [Compound 650]	H (H shows more than 50% of control values)
Cn1c(-c2c(F)cc(Br)cc2F)c(-c2cc(F)ccc2Cl)cc(Cl)c1=O [Compound 681]	H (H shows more than 50% of control values)
Cn1c(-c2c(F)cc(F)cc2F)c(-c2cc(F)cc(F)c2Cl)cc(Cl)c1=O [Compound 587]	H (H shows more than 50% of control values)
CCOc1cc(F)c(-c2c(-c3cccc(F)c3F)cc(C)c(=O)n2CC)c(F)c1 [Compound 611]	H (H shows more than 50% of control values)
CCOc1cc(F)c(-c2c(-c3cc(F)cc(F)c3F)cc(Cl)c(=O)n2CC)c(F)c1 [Compound 580]	H (H shows more than 50% of control values)
CCn1c(-c2c(F)cc(F)cc2F)c(-c2cc(F)c(F)cc2F)ccc1=O [Compound 635]	H (H shows more than 50% of control values)
CCn1c(-c2c(F)cc(OC)cc2F)c(-c2cccc(F)c2F)cc(Br)c1=O [Compound 589]	H (H shows more than 50% of control values)
CCOc1cc(F)c(-c2c(-c3ccc(F)cc3Cl)cc(Cl)c(=O)n2CC)c(F)c1 [Compound 595]	H (H shows more than 50% of control values)
COc1ccc(-c2ccc(=O)n(C)c2-c2c(F)cccc2F)c(Cl)c1 [Compound 740]	H (H shows more than 50% of control values)
COc1cc(F)c(-c2c(-c3cccc(F)c3F)cc(Cl)c(=O)n2C)c(F)c1 [Compound 562]	H (H shows more than 50% of control values)
COc1cc(F)c(-c2c(-c3cccc(OC)c3Cl)cc(Br)c(=O)n2C)c(F)c1 [Compound 669]	H (H shows more than 50% of control values)
CCn1c(-c2c(F)cc(C)cc2F)c(-c2cc(F)ccc2Cl)cc(Cl)c1=O [Compound 708]	L (L shows 50% or less of control values)
Cn1c(-c2c(F)cc(Br)cc2F)c(-c2cc(F)ccc2Cl)ccc1=O [Compound 680]	H (H shows more than 50% of control values)
CCn1c(-c2c(F)cc(F)cc2F)c(-c2ccc(F)cc2Cl)ccc1=O [Compound 575]	H (H shows more than 50% of control values)
CCn1c(-c2c(F)cc(OC)cc2F)c(-c2cc(F)c(F)cc2F)cc(Cl)c1=O [Compound 637]	H (H shows more than 50% of control values)

same assay, conditions: in vivo

SMILES	Test H control value	Test H (control value class)
CCN1C(=O)CCC(c2cc(OC)cc(OC)c2)=C1c1c(F)cccc1Br [Compound 174]	L (key: H shows more than 50% of control values; L shows 50% or less of control values)	
CCn1c(-c2c(F)cccc2F)c(-c2cccc(F)c2)cc(Cl)c1=O [Compound 154]	L (key: H shows more than 50% of control values; L shows 50% or less of control values)	
CCn1c(-c2c(F)cc(OC)cc2F)c(-c2cc(OC)ccc2Cl)ccc1=O [Compound 770]		H (key: H shows more than 50% of control values; L shows 50% or less of control values)
CCCn1c(-c2c(F)cccc2F)c(-c2cc(OC)ccc2Cl)cc(Cl)c1=O [Compound 400]		H (key: H shows more than 50% of control values; L shows 50% or less of control values)
O=c1ccc(-c2cccc(F)c2Cl)c(-c2c(F)cccc2F)n1CC(F)F [Compound 510]		H (key: H shows more than 50% of control values; L shows 50% or less of control values)
Cc1cc(-c2cccc(F)c2Cl)c(-c2c(F)cc(F)cc2F)n(C)c1=O [Compound 505]		H (key: H shows more than 50% of control values; L shows 50% or less of control values)
COc1cc(F)c(-c2c(-c3cccc(F)c3Cl)ccc(=O)n2C)c(F)c1 [Compound 492]		H (key: H shows more than 50% of control values; L shows 50% or less of control values)
COc1ccc(Cl)c(-c2ccc(=O)n(N)c2-c2c(F)cccc2F)c1 [Compound 422]		L (key: H shows more than 50% of control values; L shows 50% or less of control values)
CCN1C(=O)CCC(c2cc(F)ccc2F)=C1c1c(F)cccc1F [Compound 477]		L (key: H shows more than 50% of control values; L shows 50% or less of control values)
COc1cc(F)c(-c2c(-c3cccc(OC)c3Cl)cc(Cl)c(=O)n2C)c(F)c1 [Compound 788]		H (key: H shows more than 50% of control values; L shows 50% or less of control values)
Cn1c(-c2c(F)cc(F)cc2F)c(-c2cc(F)cc(F)c2Br)cc(Cl)c1=O [Compound 816]		H (key: H shows more than 50% of control values; L shows 50% or less of control values)
CCCCN1C(=O)CCC(c2cc(OC)ccc2Cl)=C1c1c(F)cccc1F [Compound 390]		L (key: H shows more than 50% of control values; L shows 50% or less of control values)
CCn1c(-c2c(F)cccc2F)c(-c2cc(OC)ccc2Cl)cc(S(C)(=O)=O)c1=O [Compound 387]		L (key: H shows more than 50% of control values; L shows 50% or less of control values)
CCn1c(-c2c(F)cc(F)cc2F)c(-c2ccccc2Cl)cc(Cl)c1=O [Compound 421]		H (key: H shows more than 50% of control values; L shows 50% or less of control values)
CCn1c(-c2c(F)cccc2F)c(-c2ccccc2C(F)(F)F)cc(Cl)c1=O [Compound 147]	L (key: H shows more than 50% of control values; L shows 50% or less of control values)	
CCn1c(-c2c(F)cccc2F)c(-c2cc(Cl)ccc2Cl)ccc1=O [Compound 444]		H (key: H shows more than 50% of control values; L shows 50% or less of control values)
Cc1ccccc1-c1ccc(=O)n(C)c1-c1c(F)cccc1F [Compound 180]	H (key: H shows more than 50% of control values; L shows 50% or less of control values)	
CCn1c(-c2c(F)cccc2F)c(-c2cc(OC)ccc2Cl)cc(SC)c1=O [Compound 375]		H (key: H shows more than 50% of control values; L shows 50% or less of control values)
Cn1c(-c2c(F)cc(F)cc2F)c(-c2cccc(F)c2Cl)ccc1=O [Compound 491]		H (key: H shows more than 50% of control values; L shows 50% or less of control values)
CCOc1ccc(Cl)c(-c2cc(Cl)c(=O)n(CC)c2-c2c(F)cc(OC)cc2F)c1 [Compound 796]		H (key: H shows more than 50% of control values; L shows 50% or less of control values)
COc1cc(OC)cc(-c2ccc(=O)n(C)c2-c2c(F)cccc2Cl)c1 [Compound 164]	H (key: H shows more than 50% of control values; L shows 50% or less of control values)	
CCn1c(-c2c(F)cc(F)cc2F)c(-c2cc(F)cc(F)c2F)cc(Cl)c1=O [Compound 465]		H (key: H shows more than 50% of control values; L shows 50% or less of control values)
Cn1c(-c2c(F)cc(F)cc2F)c(-c2cc(F)ccc2Cl)cc(Br)c1=O [Compound 757]		H (key: H shows more than 50% of control values; L shows 50% or less of control values)
CCn1c(-c2c(F)cccc2F)c(-c2cc(Cl)ccc2Cl)cc(C)c1=O [Compound 470]		H (key: H shows more than 50% of control values; L shows 50% or less of control values)
CCCCn1c(-c2c(F)cccc2F)c(-c2cc(OC)ccc2Cl)cc(Br)c1=O [Compound 396]		L (key: H shows more than 50% of control values; L shows 50% or less of control values)
CCn1c(-c2c(F)cc(F)cc2F)c(-c2cc(F)ccc2Cl)cc(Br)c1=O [Compound 381, 3-bromo-5-(2-chloro-5-fluorophenyl)-1-ethyl-6-(2,4,6-trifluorophenyl)pyridine-2(1H)-one]		H (key: H shows more than 50% of control values; L shows 50% or less of control values)
CCn1c(-c2c(F)cc(F)cc2F)c(-c2cc(OCOC)ccc2Cl)cc(Cl)c1=O [Compound 795]		H (key: H shows more than 50% of control values; L shows 50% or less of control values)
CCn1c(-c2c(F)cc(OC)cc2F)c(-c2cc(F)ccc2Cl)cc(Br)c1=O [Compound 476, 3-bromo-5-(2-chloro-5-fluorophenyl)-6-(2,6-difluoro-4-methoxyphenyl)-1-ethylpyridine-2(1H)-one]		H (key: H shows more than 50% of control values; L shows 50% or less of control values)
COc1cc(OC)cc(-c2ccc(=O)n(C)c2-c2c(F)cccc2Br)c1 [Compound 183]	L (key: H shows more than 50% of control values; L shows 50% or less of control values)	
